In article PMC4242493:
Some of the results follow. The list includes weakly bound sequences.

Biological target: MaxL homodimer (UniProt P61244)
Experiment: universal protein-binding microarray (PBM)
Conditions: PBS-based mixture, 10 nM His-tagged protein dimer, 2% milk, 200 ng/uL BSA, 50 ng/uL salmon testes DNA, 0.02% TX-100; detection with Alexa 488 anti-His …; high values mean tight binding; most listed sequences are background and not binding sites; double strand, one strand shown

Sequence of UniProt P61244 (P61244 whole entry): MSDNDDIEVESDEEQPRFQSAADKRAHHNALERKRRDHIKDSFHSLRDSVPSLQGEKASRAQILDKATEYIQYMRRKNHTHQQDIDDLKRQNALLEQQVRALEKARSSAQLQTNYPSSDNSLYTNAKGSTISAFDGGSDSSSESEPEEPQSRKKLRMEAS

Sequence	binding signal (normalized occupancy)
CGTTCGAG	0.0712
CCCTCCAC	0.0803
CCGGGCAA	0.0681
ATGACCAT	0.0816
AAAGCTCG	0.0667
AGTAAAAG	0.0753
GCAGCTTA	0.0685
AGACACAG	0.0736
CCTACGCC	0.0691
GGTCGCAC	0.0729
ACAAGAGT	0.0745
GACGCAAA	0.0697
CAGGAAGG	0.0681
AAAGATGG	0.0775
CATACACA	0.0892
ATGTGGAC	0.0955
ACGGGCCG	0.0711
GTCTGCAA	0.0724
GACCTCAA	0.0768
TAACTAAA	0.0724
ACCTGATA	0.0851
AAGGGAAT	0.0759
AGTGTCGA	0.0699
ACTATAGC	0.0765
ACCCTGTA	0.0791

Sequence	binding signal (normalized occupancy)
AACCCGAC	0.0723
CCCTTGCC	0.0707
AACACCCT	0.0716
CTCTGCCC	0.0694
ATCAGTGG	0.0756
ACAAAATG	0.0808
AGATCCCG	0.0705
CATCACGC	0.0961
CACCGTGG	0.0891
CTTCTAGA	0.0721
CCACGTCC	0.0838
ACTAAAAA	0.0699
CAAATTCG	0.0697
CCCGGGAG	0.064
AATATGGG	0.0882
ACACTATG	0.0843
ACCCATAC	0.0841
AAGGAACA	0.0727
ATAAGATG	0.0814
CGCGCTAA	0.075
CAATTTGG	0.0724
ATGCCGCG	0.0774
CTCTGCTA	0.0648
CATCTCCC	0.0761
CAATACCG	0.0718

Sequence	binding signal (normalized occupancy)
CAGGATGG	0.0763
CACGAAAC	0.0765
ACGTTGGC	0.0786
CCCTCGTC	0.0691
CGTAGCCC	0.0704
CGGCGTAA	0.0695
TGCCCCCA	0.0819
GCGGGGTA	0.0798
CAAACAGC	0.0805
GGTGGTCA	0.0825
AATCAAGA	0.0796
CGTACTCC	0.0728
GAGTAGGC	0.0728
ACTGATGG	0.0747
AAATAGTG	0.0749
GGGTCTCA	0.0791
ATTTGGGC	0.0746
CCAGTCTC	0.0689
AGGCATCC	0.0757
GCGCTCCA	0.0703
CAGGGTGA	0.0768
CTAGTTTC	0.0731
AGGGAGCG	0.0763
AACAGCCC	0.0779
AGTCCTTC	0.0668

Sequence	binding signal (normalized occupancy)
CTGAAAAG	0.076
ACTGAAGA	0.0728
GGGGACTA	0.0794
CGTGACAA	0.0897
CAGTTACC	0.0779
CAAAAACA	0.0734
ATCCGTAA	0.0755
ATCATAGC	0.0844
ATAACGGA	0.0785
TAACGGAA	0.0745
ATAACATC	0.0807
ACACTGCC	0.0703
AGGGCCAG	0.0667
GCCCGTAC	0.0723
GCAGTCGC	0.0722
CAAGAGTG	0.0796
ACACTAGA	0.0732
CCCGCGGA	0.0697
ATAGATGG	0.0848
CTCCCGGC	0.0667
CACAGGAC	0.0734
AGAGCCAA	0.0676
CCGTCGCA	0.0728
CGAGTACC	0.0756
ACTGGAGC	0.0725

Sequence	binding signal (normalized occupancy)
ACGCCTCG	0.0686
CGGGGCCC	0.0716
ATGGCGGC	0.0766
TGGCAGAA	0.0752
ATCCCTAG	0.076
ACAGGGGA	0.083
AGACAACG	0.0817
ACCCCCAC	0.087
CATGGGAA	0.0896
ATATCGTG	0.082
CAATTGAC	0.0785
AGGCCTAT	0.0738
GCCTGAAC	0.0731
GGCACTTA	0.073
GGTGGCGA	0.0776
CGCATTAC	0.0795
CATCTCAG	0.0737
CAGAAGAA	0.0674
GATTGCGC	0.0751
CCCATCGA	0.0763
GGCATAAC	0.0762
CACGATCA	0.0839
CAGCAAGC	0.0694
AGGGATGG	0.0796
CTTCATTC	0.0783

Sequence	binding signal (normalized occupancy)
CCAACTTA	0.0703
ACATCCCG	0.0795
GTTAGTCA	0.0738
ACTCAGCA	0.0693
ACTTAAGC	0.0746
AATCAGAC	0.0728
CCTATGCG	0.0749
GAGGAAAA	0.0732
ACATACCA	0.0864
GATGGCAC	0.0772
GATGTAAA	0.082
GACAATCC	0.0715
CCGTTAGC	0.0718
AGCAAACG	0.0718
AGCCTTAA	0.0674
CCTAAAAA	0.0718
GAATGCTA	0.0783
AGGGTGGC	0.0806
AATCGACC	0.0723
CGTCTTAC	0.0732
AAACGAGC	0.0743
ACCGGGAC	0.0721
CAGTTATC	0.0738
TCTCCGAA	0.0709
AACTGACT	0.0714

Sequence	binding signal (normalized occupancy)
AGACCGAA	0.0708
GAGTTAAA	0.0706
AGTGAGCG	0.0671
CCCGTCGA	0.0728
ATGATACA	0.0874
AGTTCGTA	0.0747
ACAGGCCA	0.0688
AGAATTAA	0.0769
ATGTTCTA	0.0805
CTTTTGTC	0.0713
AAAAGCGT	0.0737
GAACTGGA	0.0713
ACTGGACA	0.0733
GAACAGTA	0.0733
CATTGTGA	0.0867
GAGGGGGA	0.0752
CGTCTACA	0.0721
GTTGGGCA	0.0775
CGATTTGA	0.0682
AACGTAAT	0.0744
AGTACAAT	0.0763
AAACAAAA	0.0795
